The values below come from PubChem BioAssay (NCI).

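How tested: cells in 96-well plates exposed to compound for 48 hours at five concentrations. GI50 = concentration required for 50% inhibition of growth. TGI: total growth inhibition.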

The subject of the assay is NCI-H322M lung. The experiment in a line: NCI tumour cell line growth inhibition, 48 h.

With `CCOc1ccc(NC2=C(Cl)C(=O)c3nc(C)ccc3C2=O)cc1`, the GI50 is 1680 nM and the TGI stood at 3.74 µM.
